Publication PMC4336329 (PLoS ONE, 2015)
In all, about 310,000 compounds went through this assay and about 14,000 (4.5%) showed an effect of 50% or more. The effect is printed as a negative number. Some of the results follow.

Target: human ether-à-go-go-related gene (hERG) potassium channel (human, UniProt Q12809)
Assay: primary screen, population patch clamp on CHO cells stably expressing hERG
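Also: peak tail current of the secondary pulse compared with the same well before compound.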

Sequence of human ether-à-go-go-related gene (hERG) potassium channel (Q12809 whole entry, looked up): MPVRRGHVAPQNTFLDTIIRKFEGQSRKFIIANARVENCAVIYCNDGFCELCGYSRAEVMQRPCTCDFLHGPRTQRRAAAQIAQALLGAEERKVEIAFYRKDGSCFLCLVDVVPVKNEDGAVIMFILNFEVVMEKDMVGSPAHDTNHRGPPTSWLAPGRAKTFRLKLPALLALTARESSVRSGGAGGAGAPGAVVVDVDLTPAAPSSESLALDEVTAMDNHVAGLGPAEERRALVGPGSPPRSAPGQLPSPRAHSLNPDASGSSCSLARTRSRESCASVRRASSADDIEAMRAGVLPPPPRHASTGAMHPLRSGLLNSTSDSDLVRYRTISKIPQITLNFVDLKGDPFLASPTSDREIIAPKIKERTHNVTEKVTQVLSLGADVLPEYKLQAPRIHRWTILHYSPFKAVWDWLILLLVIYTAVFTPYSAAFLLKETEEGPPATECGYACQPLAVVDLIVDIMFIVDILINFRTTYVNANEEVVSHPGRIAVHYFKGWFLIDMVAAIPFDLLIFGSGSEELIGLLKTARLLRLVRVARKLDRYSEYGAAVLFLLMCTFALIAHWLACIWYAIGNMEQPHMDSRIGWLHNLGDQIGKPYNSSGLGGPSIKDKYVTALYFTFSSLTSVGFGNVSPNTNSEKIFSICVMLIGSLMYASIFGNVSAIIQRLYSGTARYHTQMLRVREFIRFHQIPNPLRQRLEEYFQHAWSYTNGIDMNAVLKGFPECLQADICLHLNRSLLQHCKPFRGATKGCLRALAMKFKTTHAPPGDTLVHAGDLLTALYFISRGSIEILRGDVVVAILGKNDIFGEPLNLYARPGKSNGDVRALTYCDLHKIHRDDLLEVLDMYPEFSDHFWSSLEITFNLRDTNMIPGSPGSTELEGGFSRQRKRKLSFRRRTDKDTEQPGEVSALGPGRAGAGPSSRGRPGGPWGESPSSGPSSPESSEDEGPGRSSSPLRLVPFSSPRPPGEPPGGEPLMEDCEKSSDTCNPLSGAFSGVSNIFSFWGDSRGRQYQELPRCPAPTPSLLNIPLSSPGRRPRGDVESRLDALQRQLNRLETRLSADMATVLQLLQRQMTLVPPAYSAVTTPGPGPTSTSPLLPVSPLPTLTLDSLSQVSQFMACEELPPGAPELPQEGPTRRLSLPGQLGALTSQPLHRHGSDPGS

| Compound | hERG current change (%, negative = inhibition) at 10uM [%] |
| --- | --- |
| O=C(COc1ccc(Cl)cc1)Nc1ccc2c(c1)nc1n2CCOC1 | -34 |
| N#Cc1ccccc1COC(=O)c1cc(=O)c2ccccc2o1 | 11.7 |
| CC1(C)SC(=S)N(/N=C/c2cccnc2)C1N(O)C(=O)Nc1ccccc1 (centres unmarked) | -5.91 |
| CCOc1ccc(CCNC(=O)COC(=O)c2cccs2)cc1OCC | -39.8 |
| O=C(Oc1ccc(-c2csnn2)cc1)C1CC1 | 1.13 |
| CCN(CC)CCNC(=O)c1ccc(NC(=O)/C=C/c2ccc3ccccc3n2)cc1 | -17.4 |
| O=C(N/N=C1/CCc2ccccc21)C1CC1 | 6.58 |
| O=C(CCl)N1c2ccccc2OCC1c1ccccc1 (centres unmarked) | -10.7 |
| COc1ccc(Cc2nc(C(=O)Nc3ccc(OC)cc3)cs2)cc1 | 1.39 |
| CCOC(=O)Cn1c(=O)c(-c2ccccc2N)nc2ccccc21 | 3.63 |
| CON(C)c1nc(Oc2ccc(=O)[nH]n2)nc(N(C)C)n1 | -9.3 |
| Cc1c2ccncc2c(C)c2c1[nH]c1ccccc12 | 5.52 |
| CN(C(=O)COC(=O)C1CCN(S(=O)(=O)c2cccs2)CC1)C1CCS(=O)(=O)C1 (centres unmarked) | -1.99 |
| CCOC(=O)c1nn(-c2ccc(C)cc2)c(=O)cc1OCC(=O)Nc1cccc(C)c1 | 9.15 |
| CN(CCC1CCOCC1)C(=O)C1CCC(=O)N(CCc2ccc(Cl)cc2)C1 (centres unmarked) | -62 |
| Cn1c(COc2ccccc2)nnc1SCC(=O)NC1CCCC1 | -3.42 |
| CCc1nnc(NC(=O)CSc2ncc(-c3ccccc3)[nH]2)s1 | 2.52 |
| CCc1cccc(NC(=S)Nc2ccc(CN3CCOCC3)cc2)c1 | -3.92 |
| C=CCNc1sc(C(=O)c2ccc(Br)s2)c(N)c1C#N | 7.52 |
| Cc1sc2c(c1C)C(O)=C(C(=O)Nc1ccccc1)S(=O)(=O)N2C | 4.91 |
| CCCCN(CCCC)/C(N)=N/c1nc(C)cc(C)n1 | -80.2 |
| CC1CCCN(C(=O)CSc2nnc3n(C4CCCC4)c(=O)c4ccccc4n23)C1 (centres unmarked) | -62.7 |
| COc1cccc(C(=O)Nc2nnc(-c3cccs3)s2)c1 | 9.53 |

| Compound | hERG current change (%, negative = inhibition) at 10uM [%] |
| --- | --- |
| COC(=O)C(=O)N1CC2(C)CNCC(C)(C1)C2=O | 18.5 |
| CCOC(=O)CCNC(=O)c1ccccc1Br | 4.69 |
| COc1ccc(NC(=O)c2c(C)oc3c2CCCC3)cc1 | 3.31 |
| CC(=O)Nc1ccc(-c2nnc(SCC(=O)NCc3ccco3)n2C)cc1 | 13.5 |
| Cc1c(/C=N/NC(=O)c2cc(C(C)(C)C)[nH]n2)c2ccccc2n1C | 5.21 |
| O=C(COc1ccccc1F)NCc1nc2ccccc2[nH]1 | -6.5 |
| COc1ccc(-c2nc(=S)[nH][nH]2)cc1OC | 23.7 |
| CCOC(=O)C1CCCN(C(=O)c2cccc(S(=O)(=O)N(C)c3ccc(C)cc3)c2)C1 (centres unmarked) | -44.9 |
| CCCNC(=O)c1ccccc1NS(=O)(=O)c1ccc2c(c1)OCCO2 | -1.56 |
| O=C(C1CCN(S(=O)(=O)c2cccc3cccnc23)CC1)N1CCN(c2ccccn2)CC1 | -36.7 |
| COc1ccc(S(=O)(=O)CCC(=O)N2CCN(c3cccc(Cl)c3)CC2)cc1 | -34.8 |
| CC1=C(C(=O)OCc2ccccc2)C(/C=C/c2ccccc2)N2C(=O)CCSC2=N1 (centres unmarked) | 13.2 |
| COc1cccc(OCC(O)CN2CCN(C(c3ccccc3)c3ccccc3)CC2)c1.Cl (centres unmarked) | -43.6 |
| O=C(N=Nc1c(O)[nH]c2ccccc12)c1ccco1 | 13.3 |
| Cc1ccc(NC(=O)c2ccc(F)c(S(=O)(=O)N3CCOCC3)c2)cc1F | -5.11 |
| O=C(CC1C(=O)NCCN1Cc1c(F)cccc1Cl)NCCC1=CCCCC1 (centres unmarked) | 0.921 |
| COc1ccc(N2C(=O)C(Cl)=C(Nc3ccccc3OC)C2=O)cc1 | 11.5 |
| COc1cc(-c2c(-c3cccc(C)c3)oc3ccccc23)cc(OC)c1OC | 22.2 |
| NC(=O)c1ccsc1NC(=O)COC(=O)c1ccccn1 | -9.57 |
| CC1CCN(CCCNC(=O)CCNC(=O)Cn2cnc3ccccc3c2=O)CC1 | 20.5 |
| COC(=O)c1c(-c2ccccc2)c[nH]c1C | 13 |
| Cc1cccc(COCC(Cc2ccccc2)N2CCN(C(=O)c3ccc(Cl)c(Cl)c3)CCC2=O)c1 (centres unmarked) | -19 |
| CC(=O)c1c(C(C)=O)c(C)n(-c2nc(-c3ccccc3)c(C)s2)c1C | 2.21 |

| Compound | hERG current change (%, negative = inhibition) at 10uM [%] |
| --- | --- |
| O=C(CSc1ccc2nnc(-c3ccccn3)n2n1)N1CCOCC1 | -24.5 |
| COc1cc(C(=O)Nc2cccc(-c3nncn3C)c2)cc(OC)c1OC | 2.63 |
| O=C1NC2(CCCCC2)C(=O)N1Cc1cccc(C(F)(F)F)c1 | 1.29 |
| Cc1ncoc1C(=O)N1CCCC(C(=O)c2ccc3c4c(cccc24)CC3)C1 (centres unmarked) | -15.5 |
| COc1ccc2occ(C(=O)c3ccccc3)c2c1 | -15.3 |
| CCn1c(C)nc2cc(C(=O)OCCC(F)(F)F)ccc21 | -24.6 |
| CCC(C)NC(=O)CSC1=Nc2ccccc2C2=NC(CC(=O)NCc3ccc(F)cc3)C(=O)N12 (centres unmarked) | -11.4 |
| COc1ccc(C(=O)C(CCC(CNC(C)(C)C)C(=O)c2ccc(OC)cc2)CNC(C)(C)C)cc1.Cl (centres unmarked) | -9.88 |
| COc1ccccc1C(=O)NC1CCSc2ccccc21 (centres unmarked) | -6.48 |
| COc1ccc(N2CCCC2)c(NC(=O)c2ccc(Br)o2)c1 | 11.8 |
| COc1ccc(Nc2nnc(Cc3ccc(Cl)cc3)c(=O)[nH]2)c(OC)c1 | -32.3 |
| O=C(CCCC(=O)OCC(F)(F)C(F)F)Nc1ccccc1F | 14.8 |
| O=C(Nc1cccnc1Cl)c1ccc(Cl)cc1 | -3.09 |
| COc1ccccc1CNc1nc2ccccc2n1CCN1CCCCC1 | -61.5 |
| Nn1c(CSc2nc3ccccc3o2)nnc1CSc1nc2ccccc2o1 | -22.8 |
| C[C@@H]1C=CC(=O)O[C@@H]1c1ccc(C(F)(F)F)cc1 | 2.71 |
| COc1ccc(N2CCN(C(=O)COC(=O)c3ccc(-n4nc(C)cc4C)cc3)CC2)cc1 | -1.95 |
| Cn1cccc1C(=O)C(=O)Nc1cccc(Cl)c1Cl | 9.89 |
| c1ccc(COc2ccc(-c3csnn3)cc2)cc1 | -3.17 |
| CC(Sc1ccc([N+](=O)[O-])cn1)C(=O)Nc1nccs1 (centres unmarked) | -5.58 |
| Cc1ccc(C)c(N2CCN(C(=O)c3ccc4c(c3)c(C)c(C)n4C)CC2)c1 | 10.8 |
| CCN1CCCC1CNC(=O)c1cc2cc(F)ccc2[nH]1 (centres unmarked) | -73.3 |
| O=C(CSC1=NCCS1)Nc1nc2ccccc2s1 | 6.64 |

| Compound | hERG current change (%, negative = inhibition) at 10uM [%] |
| --- | --- |
| COc1cccc(-c2cc(C(=O)N3CCN(C(c4ccccc4)c4ccccc4)CC3)no2)c1 | 5.76 |
| Cc1ccccc1CSCCNC(=O)CSCc1ccc([N+](=O)[O-])cc1 | -51.3 |
| OC[C@H]1O[C@@H](n2cnc3c(Nc4ccccc4)ncnc32)[C@H](O)[C@@H]1O | -11.1 |
| CN(CP(=O)(O)CN(C)S(C)(=O)=O)S(C)(=O)=O | 8.86 |
| Cc1csc(Sc2ccc([N+](=O)[O-])cc2C(=O)OCC(=O)NC2CCCC(C)C2C)n1 (centres unmarked) | -26.2 |
| CCc1ccc(NC(=O)Cn2c(SC)nc3ccccc32)cc1 | 3.1 |
| Cc1cc(/C=C2\C(=O)NC(=O)N(Cc3ccco3)C2=O)c(C)n1-c1ccc(C(=O)O)cc1 | 12.2 |
| CCOCCCNC(=S)N1CCN(C(=O)C(=O)Nc2ccc(C(=O)OC)cc2)CC1 | -40.6 |
| CCN(CC)C(=O)c1sc(NC(=O)Cc2ccccc2)c(C#N)c1C | -11.3 |
| O=C(Cn1nnc(-c2ccccc2)n1)Nc1cccc(S(=O)(=O)N2CCCC2)c1 | -2.26 |
| Cn1c(=O)[nH]c(=O)c2c1nc(CN1CCN(c3ccc(F)cc3)CC1)n2CCN1CCOCC1 | -25.8 |
| O=C(C[n+]1ccc(/C=C/c2ccccc2)cc1)c1ccc2c(c1)OCCO2.[Br-] | -50.2 |
| Cc1c(C(=O)N2CCN(c3ncccn3)CC2)sc2nc3n(c(=O)c12)CCCC3 | 12.5 |
| CCOC(=O)c1ccc(S(=O)(=O)N2CCN(S(=O)(=O)CC)CC2)cc1 | 8.36 |
| CC1(C)CC(=O)C2=C(C1)OC(N)=C(C#N)C21C(=O)N(CN2CCOCC2)c2ccccc21 (centres unmarked) | 17.8 |
| CCn1c(SCC(=O)NNC(=O)c2ccc(OC)cc2)nnc1-c1cccnc1 | -14.9 |
| Oc1ccccc1-c1nc(N2CCCC2)c2ccccc2n1 | -13.2 |
| NC(=O)CSc1nc2c(sc(=S)n2-c2ccccc2)c(=O)[nH]1 | 22.8 |
| COc1ccc(C)cc1NC(=O)CCCN1C(=O)CN(C)C1=O | -14.1 |
| COc1cc(NC(=O)CN2CCC(Cc3ccccc3)CC2)c(C)cc1[N+](=O)[O-] | 6.01 |
